Assay results: patent publication US20240124575A1 (SIMCERE ZAIMING PHARMACEUTICAL, published 2024)

T1: murine CD33-His protein (murine, UniProt Q63994 18-240, limits assumed)
T1 construct: also called murine CD33 protein
T1 sequence (looked up): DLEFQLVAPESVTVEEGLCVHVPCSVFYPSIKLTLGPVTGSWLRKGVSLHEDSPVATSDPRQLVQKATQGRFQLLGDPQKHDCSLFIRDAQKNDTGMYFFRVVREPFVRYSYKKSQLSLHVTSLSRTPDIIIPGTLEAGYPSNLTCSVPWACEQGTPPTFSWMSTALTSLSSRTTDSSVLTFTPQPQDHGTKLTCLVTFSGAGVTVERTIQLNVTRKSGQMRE


Legend:
[1] = biological target: T2, human CD33 on U937 cells (endogenous) (human, UniProt P20138); test: FACS, U937 cells
T2 construct: whole, on cells

[2] = biological target: T3, human CD33-His (extracellular domain Asp 18-His 259) (human, UniProt P20138 18-259); test: ELISA, antigen coated
T3 construct: range 18-259; bought protein; also called hCD33-his; human CD33 protein; not shown: His tag

[3] = biological target: T1, murine CD33-His protein; test: ELISA, antigen coated
[4] = biological target: T4, human CD33 on CHO-K1 cells (CHO-K1-human CD33) (human, UniProt P20138); test: FACS, CHO-K1-human CD33 cells
T4 construct: whole, on cells; stably transfected CHO-K1 clones; also called CHO-K1-hCD33-B8; CHO-K1-human CD33 B8

[5] = biological target: T1, murine CD33-His protein; test: ELISA on coated murine CD33-his
[6] = biological target: T5, human CD33-C2-his (human, UniProt P20138 136-260); test: ELISA on coated human CD33-C2-his
T5 construct: expressed in HEK293E; also called hCD33-C2-his; human CD33 protein C2-domain; not shown: His tag

[7] = biological target: T6, human CD33-V-his (human, UniProt P20138 18-144); test: ELISA on coated human CD33-V-his
T6 construct: expressed in HEK293E; also called hCD33-V-his; human CD33 protein V-domain; not shown: His tag

Sequence of human CD33-V-his (P20138 other isoform, or with tags, fused parts or gaps limits assumed): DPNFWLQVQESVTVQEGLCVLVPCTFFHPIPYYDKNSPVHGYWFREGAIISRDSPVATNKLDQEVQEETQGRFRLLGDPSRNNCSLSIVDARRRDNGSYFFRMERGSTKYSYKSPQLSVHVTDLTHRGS
Sequence of human CD33-C2-his (P20138 other isoform, or with tags, fused parts or gaps limits assumed): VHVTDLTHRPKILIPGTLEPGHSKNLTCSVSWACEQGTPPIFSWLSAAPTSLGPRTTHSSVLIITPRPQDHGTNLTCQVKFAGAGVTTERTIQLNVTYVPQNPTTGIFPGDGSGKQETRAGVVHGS

Binder | EC50 [1] [nM] | Max MFI [1] [MFI] | OD450 at 0.0001 nM [2] [OD450] | OD450 at 0.001 nM [2] [OD450] | OD450 at 0.01 nM [2] [OD450] | OD450 at 0.1 nM [2] [OD450] | OD450 at 1 nM [2] [OD450] | OD450 at 10 nM [2] [OD450] | OD450 at 100 nM [2] [OD450] | OD450 at 0.0001 nM [3] [OD450] | OD450 at 0.001 nM [3] [OD450] | OD450 at 0.01 nM [3] [OD450] | OD450 at 0.1 nM [3] [OD450] | OD450 at 1 nM [3] [OD450] | OD450 at 10 nM [3] [OD450] | OD450 at 100 nM [3] [OD450] | EC50 [4] [nM] | binding result [5] | binding result [6] | binding result [7] | other results
S006-NB146-17-H1 (Fc fusion, also called humanized VHH-Fc) EVQLVESGGGLVQPGGSLRLSCAASGSIFTSDDMDYAMGWYRQAPGKQREWVATITSDEDTYYVDSVKGRFTISRDNAKNSLYLQMNSLRAEDTAVYYCFANVRSDRSSLYRNYWGQGTMVTVSS[letters of human IgG1 Fc with changes left out] |  |  |  |  |  |  |  |  |  |  |  |  |  |  |  |  |  | no binding (tested: 100 nM) | no binding (tested: 100 nM) | no binding (tested: 100 nM) | 
S006-NB146-39 (Fc fusion, also called VHH-Fc) EVQLVESGGGLVQPGESLRLSCTAPGIILDYYPIGWFRQAPGKEREGVAFITNSDDSTIYTNYADSVKGRFTISREKNTVYLQMNSLKPEDTALYYCAARSTYIVGRNENALNSSDYDYWGQGTQVTVSS[letters of human IgG1 Fc with changes left out] | 11.3 | 650 | 0.05 | 0.06 | 0.06 | 0.14 | 1.81 | 2.81 | 2.97 | 0.06 | 0.06 | 0.06 | 0.06 | 0.06 | 0.06 | 0.06 | 44.4 |  |  |  | Max MFI [4]: 16300 MFI
S006-NB146-40 (Fc fusion, also called VHH-Fc) QVQLVESGGGLVQSGGSLRLSCAASGSIFTSNDMDYAMGWYRQVSGKQREWVATITSDEDTNYGDSVKGRFTISRDSAKNTAYLQMNSLKPEDTAVYYCFANLRSDRSTLYRNYWGQGTQVTVSS[letters of human IgG1 Fc with changes left out] | 3.82 | 1100 | 0.05 | 0.05 | 0.07 | 0.27 | 2.46 | 2.8 | 2.9 | 0.06 | 0.06 | 0.06 | 0.06 | 0.06 | 0.06 | 0.06 | 1.09 |  |  |  | Max MFI [4]: 6430 MFI
S006-NB146-17-H8 (Fc fusion, also called humanized VHH-Fc) EVQLVESGGGLVQPGGSLRLSCAASGSIFTSNDMDYAMGWYRQAPGKQREWVATITSDEDTNYVDSVKGRFTISRDSAKNSAYLQMNSLRAEDTAVYYCFANVRSDRSSLYRNYWGQGTMVTVSS[letters of human IgG1 Fc with changes left out] |  |  |  |  |  |  |  |  |  |  |  |  |  |  |  |  |  | no binding (tested: 100 nM) | no binding (tested: 100 nM) | no binding (tested: 100 nM) | 
S006-NB146-17-H5 (Fc fusion, also called humanized VHH-Fc) EVQLVESGGGLVQPGGSLRLSCAASGSIFTSQDMDYAMGWYRQAPGKQREWVATITSDEDTNYVDSVKGRFTISRDNAKNSAYLQMNSLRAEDTAVYYCFANVRSDRSSLYRNYWGQGTMVTVSS[letters of human IgG1 Fc with changes left out] |  |  |  |  |  |  |  |  |  |  |  |  |  |  |  |  |  | no binding (tested: 100 nM) | no binding (tested: 100 nM) | no binding (tested: 100 nM) | 
S006-NB146-17-H7 (Fc fusion, also called humanized VHH-Fc) EVQLVESGGGLVQPGGSLRLSCAASGSIFTSDDMDYAMGWYRQAPGKQREWVATITSDEDTNYVDSVKGRFTISRDSAKNSAYLQMNSLRAEDTAVYYCFANVRSDRSSLYRNYWGQGTMVTVSS[letters of human IgG1 Fc with changes left out] |  |  |  |  |  |  |  |  |  |  |  |  |  |  |  |  |  | no binding (tested: 100 nM) | no binding (tested: 100 nM) | no binding (tested: 100 nM) | 
S006-NB146-17-H6 (Fc fusion, also called humanized VHH-Fc) EVQLVESGGGLVQPGGSLRLSCAASGSIFTSDDMDYAMGWYRQAPGKQREWVATITSDEDTNYGDSVKGRFTISRDNAKNSAYLQMNSLRAEDTAVYYCFANVRSDRSSLYRNYWGQGTMVTVSS[letters of human IgG1 Fc with changes left out] |  |  |  |  |  |  |  |  |  |  |  |  |  |  |  |  |  | no binding (tested: 100 nM) | no binding (tested: 100 nM) | no binding (tested: 100 nM) | 

More lines, main results first:

EC50 [1] [nM] | Max MFI [1] [MFI] | OD450 at 0.0001 nM [2] [OD450] | OD450 at 0.001 nM [2] [OD450] | OD450 at 0.01 nM [2] [OD450] | OD450 at 0.1 nM [2] [OD450] | OD450 at 1 nM [2] [OD450] | OD450 at 10 nM [2] [OD450] | OD450 at 100 nM [2] [OD450] | OD450 at 0.0001 nM [3] [OD450] | OD450 at 0.001 nM [3] [OD450] | OD450 at 0.01 nM [3] [OD450] | OD450 at 0.1 nM [3] [OD450] | OD450 at 1 nM [3] [OD450] | OD450 at 10 nM [3] [OD450] | OD450 at 100 nM [3] [OD450] | EC50 [4] [nM] | binding result [5] | binding result [6] | binding result [7] | Binder | other results
5.32 | 668 | 0.06 | 0.07 | 0.09 | 0.47 | 1.55 | 2.82 | 2.75 | 0.06 | 0.06 | 0.06 | 0.06 | 0.06 | 0.06 | 0.06 | 9.75 |  |  |  | S006-NB146-20 (Fc fusion, also called VHH-Fc; S5006-NB146-20) EVQLVESGGGSVQAGGSLRLSCGTPQSWFRLSSYVMNWYRQAPGKRRELVAEITQDDTTNYTPSVKGRFAISRDNANNTVHLQMNSLKPEDTAVYYCNTIQIWGQGTQVTVSS[letters of human IgG1 Fc with changes left out] | Max MFI [4]: 20500 MFI
14.7 | 589 | 0.06 | 0.06 | 0.07 | 0.19 | 1.92 | 2.91 | 2.85 | 0.06 | 0.06 | 0.06 | 0.06 | 0.06 | 0.06 | 0.06 | 38 |  |  |  | S006-NB146-46 (Fc fusion, also called VHH-Fc) QLQLVESGGGLVQPGGSLRLSCTAPGIVLDYYPIGWFRQAPGKEREGVSFITNSDDSTIYTNYADSVKGRFTISREKNTVYLQMNSLKPEDTAVYYCAARSTYIVGRNENALNASDYDYWGQGTQVTVSS[letters of human IgG1 Fc with changes left out] | Max MFI [4]: 16500 MFI
4.09 | 1140 | 0.06 | 0.06 | 0.07 | 0.26 | 1.58 | 2.81 | 2.95 | 0.06 | 0.06 | 0.06 | 0.06 | 0.06 | 0.07 | 0.07 | 1.04 |  |  |  | S006-NB146-3 (Fc fusion, also called VHH-Fc) EVQVVESGGGLVQSGGSLRLSCAASGAIFTSNAMDYAMGWYRQVSGKQREWVATITSDDDTNYGDSAKGRFTISRDSAKNTAYLQMNSLKPEDTAVYYCFANVRSDRSTLYRNYWGQGTQVTVSS[letters of human IgG1 Fc with changes left out] | Max MFI [4]: 6420 MFI
 |  |  |  |  |  |  |  |  |  |  |  |  |  |  |  |  | no binding (tested: 100 nM) | no binding (tested: 100 nM) | no binding (tested: 100 nM) | S006-NB146-17-H4 (Fc fusion, also called humanized VHH-Fc) QVQLVESGGGLVQPGGSLRLSCAASGSIFTSDDMDYAMGWYRQAPGKQREWVATITSDEDTNYVDSVKGRFTISRDNAKNSAYLQMNSLRAEDTAVYYCFANVRSDRSSLYRNYWGQGTMVTVSS[letters of human IgG1 Fc with changes left out] | 
 |  |  |  |  |  |  |  |  |  |  |  |  |  |  |  |  | no binding (tested: 100 nM) | no binding (tested: 100 nM) | no binding (tested: 100 nM) | S006-NB146-17-H3 (Fc fusion, also called humanized VHH-Fc) EVQLVESGGGLVQPGGSLRLSCAASGSIFTSDDMDYAMGWYRQAPGKQREWVATITSDEDTNYVDSVKGRFTISRDNAKNSAYLQMNSLRAEDTAVYYCFANVRSDRSSLYRNYWGQGTMVTVSS[letters of human IgG1 Fc with changes left out] | 
 |  |  |  |  |  |  |  |  |  |  |  |  |  |  |  |  | no binding (tested: 100 nM) | no binding (tested: 100 nM) | no binding (tested: 100 nM) | S006-NB146-17-H2 (Fc fusion, also called humanized VHH-Fc) EVQLVESGGGLVQPGGSLRLSCAASGSIFTSDDMDYAMGWYRQAPGKQREWVATITSDEDTNYVDSVKGRFTISRDNAKNSLYLQMNSLRAEDTAVYYCFANVRSDRSSLYRNYWGQGTMVTVSS[letters of human IgG1 Fc with changes left out] | 
